Results as given in paper PMC8086230 (Acta Pharmacologica Sinica, 2021).

Target: T1, rat renal 11β-HSD2 (Rattus norvegicus, UniProt P50233)
T1 sequence (P50233 1-400): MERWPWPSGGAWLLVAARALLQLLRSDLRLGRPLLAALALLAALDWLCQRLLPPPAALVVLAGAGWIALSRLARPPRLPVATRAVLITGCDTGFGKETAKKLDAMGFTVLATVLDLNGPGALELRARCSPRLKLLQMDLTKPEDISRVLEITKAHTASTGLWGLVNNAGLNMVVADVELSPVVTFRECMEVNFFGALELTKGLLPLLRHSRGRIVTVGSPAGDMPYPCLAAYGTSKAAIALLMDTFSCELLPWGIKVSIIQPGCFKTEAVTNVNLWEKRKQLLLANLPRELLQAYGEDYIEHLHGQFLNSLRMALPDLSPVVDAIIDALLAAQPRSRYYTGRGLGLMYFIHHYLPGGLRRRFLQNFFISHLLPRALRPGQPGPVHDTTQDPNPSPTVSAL
Settings: read-out: Km for the rat enzyme

Km: 0.45 µM
SMILES: C[C@]12CCC(=O)C=C1CC[C@@H]1[C@@H]2[C@@H](O)C[C@@]2(C)[C@H]1CC[C@]2(O)C(=O)CO [cortisol]
